In the supplement of paper PMC11880418 one finds ALDHbr data, which are given here for 40 molecules.

Molecules are shown by their SMILES. Where a name gives a salt, the structure may show the parent alone. Some of the results follow. The data scatter; read single values as rough.
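Note: High-content imaging of ALDEFLUOR-stained cells with Hoechst-labelled nuclei in 384-well plates, triplicate wells, scored as Z-score against 0.1% DMSO vehicle, negative meaning fewer ALDHbr cells.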

The test deals with PANC1. Nature of the test: ALDHbr (CSC) cell proportion score relative to DMSO vehicle (ratio to DMSO); breast (SUM159) / gastric (MKN45) / pancreatic (PANC1) / colon cancer lines; ALDHbr cells have high ALDH activity and are rich in cancer stem cells (CSC); higher = more CSC (ALDHbr) cells remaining. Conditions: 10 µM; 72 h.
As for `OC(c1cc(C(F)(F)F)nc2c(C(F)(F)F)cccc12)C1CCCCN1` (stereo not given) [Mefloquine hydrochloride], the ALDHbr is 1.41.

On to `CCN(CC)CC#CCOC(=O)C(O)(c1ccccc1)C1CCCCC1` (stereo not given) [Oxybutynin chloride], for which the ALDHbr was 0.801.

With `CC(c1cc2ccccc2s1)N(O)C(N)=O` (stereo not given) [Zileuton], the ALDHbr worked out at 0.986.

Take `C[C@@H](O)[C@H]1C(=O)N2C(C(=O)O)=C(S[C@@H]3CN[C@H](C(=O)N(C)C)C3)[C@H](C)[C@H]12` [Meropenem]: the ALDHbr was 0.856.

Consider `COc1ccc(C[C@@H]2c3cc(OC)c(OC)cc3CC[N@+]2(C)CCC(=O)OCCCCCOC(=O)CC[N@@+]2(C)CCc3cc(OC)c(OC)cc3[C@H]2Cc2ccc(OC)c(OC)c2)cc1OC` [Cisatracurium besylate], for which the ALDHbr worked out at 0.713.

On to `CC(CCc1ccccc1)NCC(O)c1ccc(O)c(C(N)=O)c1` (stereo not given) [Labetalol hydrochloride], for which the ALDHbr came to 0.769.

In the case of `CC1=C(C(=O)O)N2C(=O)[C@@H](NC(=O)[C@H](N)c3ccc(O)cc3)[C@H]2SC1` [Cefadroxil], the ALDHbr is 0.988.

For the molecule `Clc1ccc(CCC(Cn2ccnc2)Sc2c(Cl)cccc2Cl)cc1` (stereo not given) [Butoconazole nitrate], the ALDHbr was 0.993.

Turning to `CCC[C@@H]1C[C@@H](C(=O)N[C@@H]([C@H]2O[C@H](SC)[C@H](O)[C@@H](O)[C@H]2O)[C@@H](C)O)N(C)C1` [Lincomycin hydrochloride], the ALDHbr was found to be 0.503.

With `Cc1ccsc1/C=C/C1=NCCCN1C` [Morantel tartrate], the ALDHbr stood at 0.727.

Take `N#Cc1cc(NC(=O)C(=O)O)c(Cl)c(NC(=O)C(=O)O)c1` [Lodoxamide]: the ALDHbr stood at 0.987.

In the case of `CC(C)c1ccc2oc3nc(N)c(C(=O)O)cc3c(=O)c2c1` [Amlexanox], the ALDHbr stood at 0.867.

As to `CC(C)(S)C(N)C(=O)O` (racemic) [D,L-Penicillamine], the ALDHbr is 0.977.

For `CC(C)NCC(O)c1ccc(NS(C)(=O)=O)cc1` (stereo not given) [Sotalol hydrochloride], the ALDHbr was found to be 1.01.

For the molecule `Cc1oncc1C(=O)Nc1ccc(C(F)(F)F)cc1` [Leflunomide], the ALDHbr is 0.967.

Turning to `Cc1ccc(Cl)c(Nc2ccccc2C(=O)O)c1Cl` [Meclofenamic acid sodium salt monohydrate], the ALDHbr was determined as 0.947.

Consider `CC12CC3CC(C)(C1)CC(N)(C3)C2` [Memantine Hydrochloride], for which the ALDHbr worked out at 1.03.

As to `O=C(COc1ccc(Cl)cc1)N1CCN(Cc2ccc3c(c2)OCO3)CC1` [Fipexide hydrochloride], the ALDHbr is 0.665.

On to `CC(=O)Oc1ccccc1C(=O)O` [Acetylsalicylic acid], for which the ALDHbr was found to be 0.823.

As for `CN1C(C(=O)Nc2ccccn2)=C(O)c2ccccc2S1(=O)=O` [Piroxicam], the ALDHbr was 0.855.

Consider `c1ccc(CNc2ncnc3nc[nH]c23)cc1` [Aminopurine, 6-benzyl], for which the ALDHbr is 0.743.

As to `COc1cccc(OC)c1C(=O)N[C@@H]1C(=O)N2[C@@H]1SC(C)(C)[C@@H]2C(=O)O` [Methicillin sodium], the ALDHbr was found to be 0.988.

As to `Cc1ccccc1C(=O)Nc1ccc(C(=O)N2CCCC(O)c3cc(Cl)ccc32)c(C)c1` (stereo not given) [Tolvaptan], the ALDHbr is 0.841.

Consider `COc1ccc2c3c1O[C@H]1C[C@@H](O)C=C[C@@]31CCN(C)C2` [Galanthamine hydrobromide], for which the ALDHbr was 0.889.

Regarding `CCCCOc1cc(C(=O)NCCN(CC)CC)c2ccccc2n1` [Dibucaine], the ALDHbr amounted to 0.825.

`Cc1ccc2c(c1)c1c3n2CCNC3CCC1` (stereo not given) [Pirlindole mesylate]: the ALDHbr amounted to 0.954.

`CCCCc1cc2ccccc2c(OCCN(C)C)n1` [Dimethisoquin hydrochloride]: the ALDHbr amounted to 0.889.

For the molecule `CN[C@@H]1[C@@H](O)[C@@H](O[C@@H]2[C@@H](O)[C@H](O[C@H]3OC(CN)=CC[C@H]3N)[C@@H](N)C[C@H]2N)OC[C@]1(C)O` [Sisomicin sulfate], the ALDHbr stood at 0.871.

As for `CCCCCN(C)CCC(O)(P(=O)(O)O)P(=O)(O)O` [Ibandronate sodium], the ALDHbr turned out to be 1.27.

As to `CO[C@H]1/C=C/O[C@@]2(C)Oc3c(C)c(O)c4c(O)c(c(/C=N/N5CCN(C)CC5)c(O)c4c3C2=O)NC(=O)/C(C)=C\C=C\[C@H](C)[C@H](O)[C@@H](C)[C@@H](O)[C@@H](C)[C@H](OC(C)=O)[C@@H]1C` [Rifampicin], the ALDHbr was found to be 0.965.

As to `C[C@@H]1CN(c2c(F)c(N)c3c(=O)c(C(=O)O)cn(C4CC4)c3c2F)C[C@H](C)N1` [Sparfloxacin], the ALDHbr was 0.834.

With `CCN(CC)C(=O)N1CCN(C)CC1` [Diethylcarbamazine citrate], the ALDHbr is 0.911.

As to `Nc1cc(C(Cl)=C(Cl)Cl)c(S(N)(=O)=O)cc1S(N)(=O)=O` [Clorsulon], the ALDHbr worked out at 0.963.

On to `CN1C(=O)OC(C)(C)C1=O` [Trimethadione], for which the ALDHbr was 0.932.

In the case of `CO[C@@]1(NC(=O)Cc2cccs2)C(=O)N2C(C(=O)O)=C(COC(N)=O)CS[C@@H]21` [Cefoxitin sodium salt], the ALDHbr stood at 0.932.

Turning to `CC1CCc2cc(F)cc3c(=O)c(C(=O)O)cn1c23` (stereo not given) [Flumequine], the ALDHbr came to 0.883.

Turning to `CCOC(=O)O[C@]1(C(=O)OCCl)CC[C@H]2[C@@H]3CCC4=CC(=O)C=C[C@]4(C)[C@H]3[C@@H](O)C[C@@]21C` [Loteprednol etabonate], the ALDHbr worked out at 0.647.

Turning to `CC(C)OC(=O)CCC/C=C\C[C@@H]1[C@@H](CC[C@@H](O)CCc2ccccc2)[C@H](O)C[C@@H]1O` [Latanoprost], the ALDHbr is 0.808.

With `Cc1cn([C@H]2C[C@H](N=[N+]=[N-])[C@@H](CO)O2)c(=O)[nH]c1=O` [Zidovudine, AZT], the ALDHbr was 1.03.

In the case of `CC(C)(C)NCC(O)COc1cccc2c1CC(O)C(O)C2` (stereo not given) [Nadolol], the ALDHbr worked out at 0.902.
